# According to the supplement of paper PMC10338343:
# ± gives the standard deviation. The entries are a selection whose mix differs from that of the whole data set.
# System: MIWI (PIWIL1) piRISC loaded with L1MC piRNA (30 nt)
# Test: pre-steady-state target cleavage rate (min^-1); MIWI and MILI are mouse PIWI proteins and EfPiwi is from a freshwater sponge; tags in brackets are library labels; higher = faster piRNA-guided slicing of the target
# Details: guide: L1MC piRNA 5'p-UAACUAAAUACUAUGCAAGCUGUAGGUCCU; auxiliary factor: 500 nM mouse GTSF1
# Outline: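 The pre-steady-state cleavage rate came from a burst-and-steady-state fit to pooled data from three Cleave-'n-Seq trials, in which uncleaved targets were sequenced and normalised to depth and to weakly complementary targets. Each reaction held 0.1 nM transcribed, DNA-blocked target RNA library and 1 nM active affinity-purified piRISC carrying one synthetic guide, with or without 500 nM GTSF1 partner protein, in HEPES–potassium acetate buffer at 33 °C for 0–8 or 0–960 min. k3 was capped at 0.0001 min^-1.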
row,Sequence,pre-steady-state target cleavage rate
1,UCCACCUACAGCUUGCUUAGUAUUUAGUAA,0.484 ± 0.044
2,UGGACGUACAGCUUGCAUAGUAUUUACAAA,0.209 ± 0.031
3,UGGACCUACACCUUGCAUAGUAUUAAGUUA,0.495 ± 0.043
4,UCCUGGAACAGGUUGCAUUGUAUUUAGUUA,0.544 ± 0.052
5,UCCUGGAUCAGCUUGCAAAGUAUUAAGUUA,0.533 ± 0.04
6,UCCUGGUACAGCUGCAUAGUAUUUAGUUA,0.582 ± 0.035
7,AGGACCUACAGCUUGGAUAGUAUUUAGAAA,0.335 ± 0.038
8,UCGACCUACAGCUUGGAAAGUAUUUAGUUA,1.12 ± 0.043
9,UCCUGGAUGUGCUAGCAUUGUAUUUAGUUA,0.00699 ± 0.0027
10,UCCUGGAACAGCUUGCAUAGUAAUUUAGUUA,0.0998 ± 0.011
11,AGGACCUACACCUUGCAUAGUAUUUAGAUA,0.408 ± 0.043
12,UCCACCUAGACCUUGCAUAGUAUUUAGUUA,0.517 ± 0.038
13,AGGAGCUACAGCUUGCAUAGUAUUUACUUA,0.368 ± 0.05
14,UCCUGGAACACCUUGCAUAGUAUUUUGUUA,0.298 ± 0.051
15,AGGACCUACAGCUUGCAUAGUAUUGAGUUA,0.699 ± 0.068
16,UCCUGGAUGAGCAUGCAUAGUAUUUAGUAA,0.356 ± 0.046
17,UCGACCUUGUGCUUGCAUAGUAUUUACAAA,0.101 ± 0.018
18,UGGACCUACAGCAUGCAAAGUAUUUAGUUA,1.07 ± 0.058
19,AGGACCUACAGCUAUGCAUAGUAUUUAGUUA,0.962 ± 0.052
20,UCCUGGAUGAGCUCGCAUAGUAUUUAGUUA,0.837 ± 0.05

row,Sequence,pre-steady-state target cleavage rate
1,UCCUGGAUCAGCUUGUCAUAGUAUUUAGUUA,0.157 ± 0.019
2,UCCUGGAACAGCUUGCAUAGUAUUUAAUUA,0.215 ± 0.026
3,UCCUGGAUCAGCUUGAUAGUAUUUAGUUA,0.0664 ± 0.007
4,UGGACCUACAGCUUGCAUAGUAUCUAGUUA,0.814 ± 0.055
5,UCCUGGUACAGCUUGCAUAGUAUUUGGUUA,0.449 ± 0.037
6,AGGACCUACUCCUUGCAUAGUAUUUUCAAA,0.268 ± 0.037
7,UCGACCUUGUGCUUGCAUAGUAUUUAGUAA,0.506 ± 0.051
8,UCCUGGUACAGCUGUGCAUAGUAUUUAGUUA,0.688 ± 0.047
9,UCCUGGAUGAGCUUGGAUAGUAUAUAGUUA,0.234 ± 0.04
10,UCCUGGUACAGCUUGCAUAGAAUUUUGUUA,0.131 ± 0.033
11,UGGACCUACAGCUUGGAUAGUAAUUAGUUA,0.73 ± 0.041
12,UCCUGCUACAGCUUGCAUAGUUUUUAGAUA,0.164 ± 0.028
13,UCCUGCUUCAGCAUGCAUAGUAUUUAGUUA,1.32 ± 0.078
14,UCCUGGAUCUGCUUGCAUAGUAUUUAGUAA,0.591 ± 0.039
15,UCGACCUAGAGCUUGCAUAGUAUUUAGAAA,0.441 ± 0.048
16,UCCUGGUACAGCUCGCAUAGUAUUUAGUUA,0.768 ± 0.043
17,UCCACCUACAGCUUGGAAAGUAUUUAGUUA,1.01 ± 0.03
18,UGCACCUACAGCUUGCAUAGUAUUUACUUA,0.46 ± 0.056
19,UCGACGUACAGCUUGCAUAGUAUUUACAAA,0.32 ± 0.045
20,UCCUGGUACAGCUUGCAUAGUAUUUAGUUUA,0.866 ± 0.053

# Same assay, conditions: guide: L1MC piRNA 5'p-UAACUAAAUACUAUGCAAGCUGUAGGUCCU; auxiliary factor: none (no GTSF1)
row,Sequence,pre-steady-state target cleavage rate
1,UCCACCUACAGCUUGCUUAGUAUUUAGUAA,0.0103 ± 0.0023
2,UGGACGUACAGCUUGCAUAGUAUUUACAAA,0.0087 ± 0.0028
3,UGGACCUACACCUUGCAUAGUAUUAAGUUA,0.0264 ± 0.0055
4,UCCUGGAACAGGUUGCAUUGUAUUUAGUUA,0.00919 ± 0.0033
5,UCCUGGAUCAGCUUGCAAAGUAUUAAGUUA,0.00937 ± 0.0035
6,UCCUGGUACAGCUGCAUAGUAUUUAGUUA,0.00774 ± 0.0038
7,AGGACCUACAGCUUGGAUAGUAUUUAGAAA,0.011 ± 0.0029
8,UCGACCUACAGCUUGGAAAGUAUUUAGUUA,0.00439 ± 0.0018
9,UCCUGGAUGUGCUAGCAUUGUAUUUAGUUA,0.00416 ± 0.0027
10,UCCUGGAACAGCUUGCAUAGUAAUUUAGUUA,0.00907 ± 0.0024
11,AGGACCUACACCUUGCAUAGUAUUUAGAUA,0.0455 ± 0.01
12,UCCACCUAGACCUUGCAUAGUAUUUAGUUA,0.0242 ± 0.0044
13,AGGAGCUACAGCUUGCAUAGUAUUUACUUA,0.0464 ± 0.0098
14,UCCUGGAACACCUUGCAUAGUAUUUUGUUA,0.00453 ± 0.002
15,AGGACCUACAGCUUGCAUAGUAUUGAGUUA,0.085 ± 0.017
16,UCCUGGAUGAGCAUGCAUAGUAUUUAGUAA,0.00617 ± 0.0035
17,UCGACCUUGUGCUUGCAUAGUAUUUACAAA,0.00294 ± 0.0017
18,UGGACCUACAGCAUGCAAAGUAUUUAGUUA,0.0143 ± 0.0031
19,AGGACCUACAGCUAUGCAUAGUAUUUAGUUA,0.0545 ± 0.011
20,UCCUGGAUGAGCUCGCAUAGUAUUUAGUUA,0.0318 ± 0.0078

row,Sequence,pre-steady-state target cleavage rate
1,UCCUGGAUCAGCUUGUCAUAGUAUUUAGUUA,0.00402 ± 0.0027
2,UCCUGGAACAGCUUGCAUAGUAUUUAAUUA,0.0325 ± 0.0075
3,UCCUGGAUCAGCUUGAUAGUAUUUAGUUA,0.00393 ± 0.0017
4,UGGACCUACAGCUUGCAUAGUAUCUAGUUA,0.0409 ± 0.0077
5,UCCUGGUACAGCUUGCAUAGUAUUUGGUUA,0.0417 ± 0.0074
6,AGGACCUACUCCUUGCAUAGUAUUUUCAAA,0.00279 ± 0.0022
7,UCGACCUUGUGCUUGCAUAGUAUUUAGUAA,0.0187 ± 0.0041
8,UCCUGGUACAGCUGUGCAUAGUAUUUAGUUA,0.0171 ± 0.0052
9,UCCUGGAUGAGCUUGGAUAGUAUAUAGUUA,0.0165 ± 0.0054
10,UCCUGGUACAGCUUGCAUAGAAUUUUGUUA,0.00447 ± 0.0042
11,UGGACCUACAGCUUGGAUAGUAAUUAGUUA,0.0223 ± 0.0058
12,UCCUGCUACAGCUUGCAUAGUUUUUAGAUA,0.00613 ± 0.0022
13,UCCUGCUUCAGCAUGCAUAGUAUUUAGUUA,0.0171 ± 0.0036
14,UCCUGGAUCUGCUUGCAUAGUAUUUAGUAA,0.013 ± 0.0035
15,UCGACCUAGAGCUUGCAUAGUAUUUAGAAA,0.00689 ± 0.0021
16,UCCUGGUACAGCUCGCAUAGUAUUUAGUUA,0.0419 ± 0.0066
17,UCCACCUACAGCUUGGAAAGUAUUUAGUUA,0.00576 ± 0.0018
18,UGCACCUACAGCUUGCAUAGUAUUUACUUA,0.0724 ± 0.017
19,UCGACGUACAGCUUGCAUAGUAUUUACAAA,0.00459 ± 0.0019
20,UCCUGGUACAGCUUGCAUAGUAUUUAGUUUA,0.0646 ± 0.014
